The source of these data is ChEMBL document CHEMBL4888484, “Replenishing the malaria drug discovery pipeline: Screening and hit evaluation of the MMV Hit Generation Library 1 (HGL1) against asexual blood stage Plasmodium falciparum ,using a nano luciferase reporter read-out” (2022).

As a reminder, the % Inhibition is the relative decrease from the control value, in per cent.

The structures appear in SMILES notation. Hit rate of the full screen: of about 150,000 compounds, about 540 (0.36%) showed an effect of 50% or more. Some of the results follow.

In this assay the test system is Plasmodium falciparum. Put plainly: Primary screen in NF54 nanoGlo assay, in single point, at 2uM, 72h; a lower Z score goes with more inhibition. The assay is classed as functional, Erythrocyte. The following applies: timepoint 72 hour.
In the case of `CC1CCN(c2ccc(NS(=O)(=O)c3ccc4c(c3)CCCC4)cc2C(=O)O)CC1`, the “% Inhibition” value is -4% and the Z score is listed as 0.37.

Take `O=C(Cn1cnc2c(c1=O)CN(Cc1ccccc1)CC2)Nc1ccc(F)cc1`: the “% Inhibition” value was -9% and the Z score turned out to be 1.2.

With `C[C@H](NC(=O)CN(C)c1nc2c(Cl)cccc2s1)c1ccccc1`, the “% Inhibition” value is -3% and the Z score was determined as 0.52.

For the molecule `CC(C)CCN1C(=O)CC[C@@H]2CN(C(=O)c3cc[nH]n3)CC[C@@H]21`, the “% Inhibition” value is on record as -13% and the Z score turned out to be 2.22.

Consider `CCOc1ccc(C2c3[nH]c4ccccc4c3C[C@H]3C(=O)N(C4CCCCCCC4)CC(=O)N23)cc1OC` (some centres undefined), for which the “% Inhibition” value is reported as 12% and the Z score is listed as -1.52.

In the case of `O=C(NCc1ccccc1CN1CCOCC1)c1ccc(OCc2ccccc2)cc1`, the “% Inhibition” value was -8% and the Z score stood at 1.77.

`CC[C@H](C)N(CC(=O)N(Cc1ccc(F)cc1)Cc1ccc(C)s1)C(=O)C1CCC1`: the “% Inhibition” value is 19% and the Z score is given as -2.35.

For `COc1cccc(CN(Cc2ccc(CC3CCN(C(C)=O)CC3)cc2)C2CC2)n1`, the “% Inhibition” value is recorded as -11% and the Z score turned out to be 2.18.

`COc1ccsc1S(=O)(=O)NCC#CCO`: the “% Inhibition” value is listed as 2% and the Z score is -0.42.

For the molecule `COc1cc([C@H]2CC(=O)Nc3c2c(=O)[nH]n3C2CCCCCC2)cc(OC)c1O`, the “% Inhibition” value came to 9% and the Z score is listed as -1.61.

Regarding `Cc1nn(Cc2nnc3n2CCCCC3)cc1N`, the “% Inhibition” value is recorded as 32% and the Z score is -3.65.

Consider `CCCc1ccc(CN2CCCn3nc(CN4CCCOCC4)cc3C2)o1`, for which the “% Inhibition” value is -6% and the Z score turned out to be 0.75.

With `Cc1nc(N(C)C)nc(N2CCC[C@@H]2c2csc(C)n2)n1`, the “% Inhibition” value was 5% and the Z score was -0.88.

For the molecule `COc1ccc(CN=C(N)Nc2ccc(OC)c(F)c2)cc1C`, the “% Inhibition” value was -2% and the Z score is 0.35.

For `COCC[C@]1(NS(=O)(=O)c2ccccc2)CCN(C2CCCCC2)C1`, the “% Inhibition” value is -7% and the Z score is 0.78.

Regarding `Cc1cc(Cl)ccc1OCC(=O)N[C@H](c1ccccc1)C1CC1`, the “% Inhibition” value is listed as -4% and the Z score stood at 0.36.

Regarding `CCn1cc(-c2cc(C(=O)Nc3c(C)noc3C)c3ccccc3n2)c(C)n1`, the “% Inhibition” value was -5% and the Z score is on record as 0.7.

Turning to `CCCCS(=O)(=O)N1CCC(CCc2noc(C3CC3)n2)CC1`, the “% Inhibition” value was found to be 0% and the Z score turned out to be 0.08.

For `O=C(O)c1c2c(nc3ccc(S(=O)(=O)N4CCC(C(=O)NC5CCCCCC5)CC4)cc13)CCCC2`, the “% Inhibition” value is listed as -13% and the Z score is on record as 2.03.

With `c1ccc(CCN2CCC[C@H](Cn3cncn3)C2)nc1`, the “% Inhibition” value is reported as -8% and the Z score is on record as 0.91.

`O=c1cc2c(nn1CC1CCN(S(=O)(=O)c3ccc4c(c3)CCO4)CC1)CCC2`: the “% Inhibition” value is -7% and the Z score is on record as 1.

With `CNC(=O)OCc1cccc(COC(=O)NC)n1` [PYRICARBATE], the “% Inhibition” value is given as -5% and the Z score is given as 0.46.

Regarding `C#CCNC(=O)Cc1ccc(OC)cc1`, the “% Inhibition” value is recorded as -14% and the Z score worked out at 2.67.

As to `CC1(C)CCC[C@@H]1C(=O)NS(=O)(=O)Cc1ccc(Br)c(F)c1`, the “% Inhibition” value turned out to be 3% and the Z score was -0.37.

`C#C[C@@H](NC(=O)NCC1(N2CCOCC2)CC1)C(C)C`: the “% Inhibition” value is reported as -18% and the Z score was determined as 1.98.

`COCC1(CNCc2cccc(O)c2)CCC1`: the “% Inhibition” value was 1% and the Z score is reported as -0.16.

In the case of `CC(C)(C)c1ccc(C(=O)N2CCOC[C@@H]2CC(N)=O)nc1`, the “% Inhibition” value is -7% and the Z score came to 0.91.

As for `CN1CCC(n2ccnc2-c2ccccc2-c2ccccc2)CC1`, the “% Inhibition” value is recorded as -12% and the Z score stood at 1.15.

For `Cn1cc(CNc2ncccn2)c(C(C)(C)C)n1`, the “% Inhibition” value was determined as 10% and the Z score is recorded as -1.02.

`Cc1c(C(=O)NCc2ccc3c(c2)C(=O)NCC3)nnn1CC1CCCC1`: the “% Inhibition” value was -4% and the Z score is listed as 0.83.

For `Cc1ccc(C(=O)NCC(CNC(=O)c2ccc(C)o2)NC(=O)OC(C)(C)C)o1`, the “% Inhibition” value is 5% and the Z score is reported as -0.8.

Consider `NC(=O)c1ccccc1NC(=O)CNC1(c2ccc(F)cc2)CCC1`, for which the “% Inhibition” value was 5% and the Z score is -0.68.

As to `O=C(Nc1ccc(C(=O)N2CCN3CCNC(=O)[C@@H]3C2)cc1)C1CCC1`, the “% Inhibition” value turned out to be 13% and the Z score is -1.76.

`Cc1oncc1CNS(=O)(=O)C[C@H]1COc2ccccc2O1`: the “% Inhibition” value is listed as -9% and the Z score worked out at 1.53.

Take `CCOC1(C(=O)NC2CCCC(C(=O)N(C)C)C2)CCCC1` (centres undefined): the “% Inhibition” value is -4% and the Z score was determined as 0.46.

With `Cc1nn(-c2ccccc2Cl)c(Cl)c1CNC[C@H](O)CN1CCCC1`, the “% Inhibition” value was -1% and the Z score worked out at 0.07.

As to `CC1(C)C[C@H](COc2ccncc2)C(C)(C)O1`, the “% Inhibition” value is reported as -2% and the Z score is given as 0.18.

For the molecule `CC(=O)Nc1ccc2nn(-c3cccc4ccccc34)nc2c1`, the “% Inhibition” value is reported as -20% and the Z score is on record as 2.72.

Consider `CN1CCN([C@H]2CCN(c3ccnc4ccc(Cl)cc34)C[C@H]2CCCO)CC1`, for which the “% Inhibition” value is given as 41% and the Z score was -4.86.

As to `O=C(c1cc(F)ccc1Cl)N1CCN(c2ncccc2-c2nnc(C3CC3)o2)CC1`, the “% Inhibition” value is given as -7% and the Z score came out at 1.08.

Regarding `Cn1ncc2c(N3CC[C@H](n4cc(C5CC5)nn4)C3)ncnc21`, the “% Inhibition” value turned out to be 0% and the Z score came out at 0.07.

For the molecule `COC[C@H]1CCCN(C(=O)Cn2cnc3c2CCCC3)CC1`, the “% Inhibition” value is reported as -15% and the Z score is given as 2.87.
